# The other results are listed elsewhere or left out.
# Tested on: PfSIP2 AP2 domain 1 (GST-tagged)
# Test: gcPBM binding intensity (ln(normalized median fluorescence intensity)); higher = stronger DNA binding
# How it was run: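 In this array assay, P. falciparum DNA-binding domains with a GST tag, expressed in E. coli, were applied for 1 h to primer-extended double-stranded 36-bp intergenic genomic probes and negative controls on an Agilent 4 × 180k array. Bound protein was visualised with Alexa488 anti-GST antibody at 488 nm. Binding intensity is the highest Masliner-normalised natural-log median intensity across replicate spots of either probe orientation.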
row,Sequence,gcPBM binding intensity (ln)
1,TTCGTTTAAATCAAGTGTACATATTATATATAATAT [XGTACX_site7599],7.29
2,ATTTTTTTTTTTTTTTTTTGGTTTTCTTTAGGAGTT [CACACA_negctrl_site1258],6.9
3,GTATATATTTTTATTTAATAATTTGTTTATTTATTC [CACACA_negctrl_site647],6.95
4,CATACATATACATACAGTACATATTTTTTGTCAATT [XGTACX_site7357],7.22
5,AACGAAAACACTACGTGTACCAAACGTCCTACTAAC [XGTACX_site4915],6.9
6,TTATATGGCTCCATTTGTACGCATCCATGTTTTTAT [XGTACX_site6590],6.99
7,AAAAAAAAAAAAAAAGCACACATCATATTATAATTC [CACACA_site3355],7.54
8,AAAAAAACATAACAAAATGAAACAAAACAAAAAGAA [GTGCAC_negctrl_site577],7.28
9,AGTTATTAAAAATGTGCATGCAATGGTTTCTCTTAA [TGCATGCA_site634],7.52
10,ATTTATAATGATTTTTTTAGTAATCTTGTTATTTTT [XGTACX_negctrl_site373],6.68
11,AGGAGGTCAGTTCACAGTACCCAGAAACTCTACGAG [XGTACX_site2006],6.65
12,TCTTTTTTTTCTTTTTTTTTATTTAAATATCAAGTA [CACACA_negctrl_site1354],6.73
13,GTATGTATATATATATGTACATACTGTTTATCGTTA [XGTACX_site6168],6.94
14,TTTTAATAAATATACACACACAAAAAAAAAAAAAAA [CACACA_site3971],7.15
15,TTTCACTTTTTCCAAAGTACATATATAAAAATTAAT [XGTACX_site6947],7.05
16,ATATAAAAAAAAAAAAGTACACATAAACAAATGCAT [XGTACX_site4241],7.03
17,AGATTATAAAATTCTACACACATATATACATATATA [CACACA_site3485],6.86
18,GACCAATTCAAATATGCACACAAATTTGAAAACGAT [CACACA_site9202],7.58
19,AATATATAGAAACACACACACAAAAAAAAAAAAAAA [CACACA_site1326],6.92

row,Sequence,gcPBM binding intensity (ln)
1,AATAAAAAGACATTCACACATATATATTATTTATAT [CACACA_site5936],7.12
2,TTAAAATATAATATTCGTACTTATTCAAAAGAAAAA [XGTACX_site2122],6.75
3,ATATGTAGAAGTAATGCACACATATGTATATATATA [CACACA_site8796],8.38
4,ATAATGTAAAAGTAAACACACACATATATATATACA [CACACA_site8793],7.06
5,GTCTTAAAAATTAAAACACACGTTCACTTTCATATT [CACACA_site5803],7.39
6,TATATATATATATAATGTACATATATATAATATACA [XGTACX_site1552],9.25
7,ATTTCTACTAAAAATACACACGATGATACAACGAAG [CACACA_site1755],6.95
8,AATTAATAACAAAATAAACACACATATATAAATACA [CACACA_site8456],6.96
9,TATATTTAGATATATACACACATTAGCATTTTCATA [CACACA_site6902],6.83
10,CTAATGATCATATATACACACACACTAATAAAAAAA [CACACA_site9329],7.11
11,AAAGAATTTGCATATACACACAAAAAGATATATACA [CACACA_site6318],6.9
12,CATAATACAGATAACACACACAATTATACATAAAAT [CACACA_site5742],7.07
13,AGGAGGTCAGTTCACAGTACCCAGGAAATCTACGGA [XGTACX_site2552],6.52
14,AAAAATAAAATAAAGAAGGAAAATAAAAAAATAAGG [CACACA_negctrl_site1811],7.3
15,AAACATAAGAGACACACACACATATATAAATAAATA [CACACA_site7674],7.14
16,AATTTCATAAATATAACTGAGAATAAATAAACAAAG [GTGCAC_negctrl_site146],7.18
17,CCTGTAAATAAATATAAATACATATTTCTAATATAT [GTGCAC_negctrl_site21],6.96
18,TTTCAAAAAAATAATGTGCACATTAGAAAATAAATA [GTGCAC_site9416],8.53
19,ACCTCATAATATTTAACACACAAAATTAAATGTATG [CACACA_site6898],7.13

row,Sequence,gcPBM binding intensity (ln)
1,ACATATATTTAAAAATGTACTTACATATATTTTTTA [XGTACX_site6050],6.96
2,GAAGTATTTATTTATGCATGCAAATATACAAAAAAA [TGCATGCA_site975],7.2
3,TTTTATACATATTTTACACACTAAAATATACATATA [CACACA_site324],7.23
4,TTATGTTGTAAATGCACACATACATAAACTCAGTTT [CACACA_site5639],7.71
5,ATAAAATAAATATTTTGTTATTTATTTAATCTAATA [XGTACX_negctrl_site404],6.62
6,TAAATATTTTTAGATGCATGCAATAATTACCCAAAG [TGCATGCA_site636],7.36
7,TTATTATTATTACTAGTGCATTAATTATATATGTAA,8.8
8,TTTTTTTTTTCTGAAAGTACTAATTTCCTGGAGGAA [XGTACX_site759],6.78
9,ATATTTCTGTCAAGCACACATAATATTAAAATATGT [CACACA_site4330],7.04
10,ATTTAGAAAAATAAAACACACATATAGATGTAAATA [CACACA_site7853],6.81
11,TCATATTATAATGTGAGTACATATAATAAATAAGTT [XGTACX_site2470],7.03
12,ATGTTTGTCTATAGCTGTACCTATTTATAAAACGTA [XGTACX_site7157],7.03
13,TTAATATGATATATATATATATATATATATATATAT [CACACA_negctrl_site683],9.01
14,GTAAAAATTTTAAATACATGCAAGCGATTAATATGA [TGCATGCA_site80],6.83
15,GTATATATGTATATATGTACATATATACATTTTGTT [XGTACX_site7320],7.35
16,CGTTAAAGGGAATGTATACACACGTTTCTCTATGTT [CACACA_site1198],6.82
17,TTAAATAATATTAAATGTACATATTATTATGATATA [XGTACX_site6189],6.89
18,TATATATTTAACAATCGTACATATTTACAAATATAA [XGTACX_site2131],6.88

# — the supplement of paper PMC11417369
